Test results from the BET-seq Pho4 binding data (Le et al. 2018).
Some of the results follow. The energies were worked out here from pooled read counts, against the library average; single values are noisy.

Target: T1, Pho4 (S. cerevisiae) (UniProt P07270)
T1 sequence: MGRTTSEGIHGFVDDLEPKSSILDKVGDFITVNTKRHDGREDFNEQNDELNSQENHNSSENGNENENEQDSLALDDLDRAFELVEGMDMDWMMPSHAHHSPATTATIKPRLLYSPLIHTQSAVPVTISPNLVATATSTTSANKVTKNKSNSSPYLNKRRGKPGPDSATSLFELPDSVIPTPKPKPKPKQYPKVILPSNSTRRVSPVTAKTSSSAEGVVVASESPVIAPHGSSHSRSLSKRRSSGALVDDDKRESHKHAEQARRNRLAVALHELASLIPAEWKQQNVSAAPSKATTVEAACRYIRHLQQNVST
Experiment: relative binding free energy (BET-seq); higher = weaker binding
Settings: reference: library average

Sequence	relative binding free energy [kcal/mol]
AGAGGCACGTGCCGGG	-0.3
TGGGGCACGTGGGTCT	-0.14
ATGAACACGTGGGTTA	-0.11
AGTAACACGTGGTTGC	-0.11
AGAGTCACGTGTAAAT	0.37
GTTATCACGTGGTAGC	0.06
AGATACACGTGTTGAT	-0.06
TGTCACACGTGCTGTG	-0.05
GTGACCACGTGTGGTG	0.11
AGGCACACGTGGTTGA	-0.03
GAAATCACGTGATTGT	0.47
TTTTACACGTGCGGCG	0.19
TTTAGCACGTGACTGA	0.08
TGTTCCACGTGGGGAT	-0.14
TTATACACGTGCGTTT	-0.17
TGGGTCACGTGGAATA	0.22
CTGTGCACGTGGCGGA	-0.13
TTGACCACGTGGTATG	-0.08
ACGGTCACGTGTTATG	0.1
GCTGACACGTGCGTGG	-0.02
AGGAACACGTGGACTG	0.21
TTGTACACGTGTGATA	0.09
GTAGGCACGTGTCTTG	-0.1
GTGGGCACGTGGATGA	0.04
AGGTACACGTGATGGG	0.11
TGGGACACGTGATTAG	0.09

Sequence	relative binding free energy [kcal/mol]
TGTGGCACGTGCCATG	-0.21
GGGTACACGTGTGAGC	0.11
TATTTCACGTGGGGTC	0.24
GATGGCACGTGTATGG	0.11
TCTGTCACGTGGTGGG	0.09
TTGCGCACGTGAGTCT	0.28
AGGGTCACGTGTCTAG	0.23
AGTGTCACGTGATATC	0.26
GGCGGCACGTGGGGGT	-0.13
GGTATCACGTGCCGGT	0.17
ATAGTCACGTGTAGCT	0.08
GTAGACACGTGTTTTA	0.05
GTGTTCACGTGCTAAG	0.34
GTAATCACGTGGGATA	0.07
ATGTTCACGTGGGGGA	0.05
GTTTTCACGTGGGTTT	0.26
TATTACACGTGTATGT	0.08
TTAGGCACGTGACTAT	-0.08
TATCACACGTGTGGTG	0.01
TGTTGCACGTGAAGTT	0.27
AGTGGCACGTGGACGA	-0.05
GGCATCACGTGGTGGG	0.07
ATGTTCACGTGAAGGG	0.31
TGTAACACGTGGTCGG	-0.22
TTCGTCACGTGACATT	0.44
GGTGCCACGTGCGGCG	-0.14

Sequence	relative binding free energy [kcal/mol]
TTCTTCACGTGGTTGG	0.23
AGAGTCACGTGGCTTA	0.12
CTCTTCACGTGGGGTT	0.16
TTGTTCACGTGCTTTG	0.16
ATGGTCACGTGTTATA	0.05
GTCGGCACGTGCAGTG	0
GAGTGCACGTGCTGTT	-0.01
AGTTTCACGTGCCTGT	0.24
TAGGGCACGTGATAAG	-0.09
CTCTTCACGTGTGGGT	0.22
TTTTTCACGTGCATCT	0.23
TGAGACACGTGTTGAC	0.24
GTTCTCACGTGAAGTG	0.34
GGGTGCACGTGGTCTA	-0.09
ACGGGCACGTGAGGTA	0.09
TTTGTCACGTGTTTGG	0.15
TTGCACACGTGGGGTG	-0.13
TGGTACACGTGGTACA	0.05
GTGTACACGTGGGAAA	-0.09
CTGTACACGTGTGGAG	0.06
AGATGCACGTGGCGGT	-0.21
TTACGCACGTGTGGTG	-0.15
CTGGTCACGTGTTTTC	0.19
TTGTTCACGTGACTGG	0.22
CGGTGCACGTGGAAGT	-0.06
TGGCGCACGTGATTAG	-0.01

Sequence	relative binding free energy [kcal/mol]
GTTGACACGTGTGGCT	0.11
TTGAACACGTGTATAT	0.08
ATGGACACGTGTTGGT	0.07
TGTGACACGTGTTTTG	0.12
TGTTGCACGTGTTGTA	0.04
TGTGCCACGTGAGGAT	0.08
TGAGACACGTGTTTGA	-0.15
TAGTGCACGTGAGTGA	0.07
TTTGGCACGTGAGCGT	-0.01
GATGTCACGTGCGAGG	0
AACGTCACGTGTTATT	0.2
GTCCACACGTGGGGTG	0.03
AATGGCACGTGGGGCA	-0.19
GGGACCACGTGTGTTT	0.15
GAAAGCACGTGGGTGA	-0.16
CAAGTCACGTGTAGTG	0.28
AAAGGCACGTGAGGCT	0.05
CGTTGCACGTGCTAGG	-0.1
TTTGTCACGTGCGGCG	0
GTGGTCACGTGTCAAG	0.2
ATTCGCACGTGTGGAG	-0.08
TTTTGCACGTGATTCT	0.08
ATGTGCACGTGCGCTT	-0.11
AGTATCACGTGTAGAG	0.16
GTATGCACGTGACGTG	0.12
GTAGTCACGTGAGCGG	0.42

Sequence	relative binding free energy [kcal/mol]
ATCGTCACGTGCGGTG	0.05
TGATACACGTGCATGT	0.04
GTCGTCACGTGGTGTT	0.1
GGGTGCACGTGGATAC	0.02
GGGCGCACGTGGTGGT	-0.1
ACATGCACGTGGTGCG	-0.01
CACTTCACGTGTTGGG	0.29
GGGTGCACGTGGACTT	0.01
AAGGTCACGTGGTTGG	0.18
TGTGGCACGTGTGATT	0.18
AGGTTCACGTGGGCTG	0.22
TGCTTCACGTGGACGG	0.33
AAGATCACGTGTGGCT	0.2
GGTTCCACGTGGCTGG	-0.03
ATCAACACGTGGGGGT	-0.19
TGGGACACGTGATTAT	0.06
ATAATCACGTGTATGT	0.12
GTAGGCACGTGGAGCT	-0.13
TGTTTCACGTGCATTG	0.19
GAATACACGTGTGTTT	0.06
GGAGGCACGTGAGAAT	0.15
TCGAGCACGTGAGGTA	0.14
AGACGCACGTGTTGGG	-0.02
ACTGGCACGTGTTGTT	0.03
TATTGCACGTGTGTCG	-0.04
GGTGGCACGTGTACCG	0.06

Sequence	relative binding free energy [kcal/mol]
CTGGACACGTGGAGGG	0
GCTTTCACGTGGTGTT	0.21
GAGCTCACGTGGGTAG	0.16
TTGAACACGTGGGACG	0.04
TCGGGCACGTGGGTTC	-0.18
TTAATCACGTGTTAAG	0.13
GGTTACACGTGTGTTC	0.36
TGGTACACGTGGTGGC	-0.04
GATCTCACGTGCTGGT	0.37
TGGTTCACGTGTACGG	0.35
TGGGACACGTGACGGC	0.19
GGGTCCACGTGGAGAG	0.15
TTTTGCACGTGGGTTG	0
CTATTCACGTGTGATG	0.18
GCAGGCACGTGGTGTA	-0.13
ATGAGCACGTGTTAGT	-0.11
GGGTCCACGTGGGGTG	-0.05
ATGGCCACGTGAGGAT	0.17
TTGGTCACGTGCTATA	-0.08
ATGATCACGTGGTGGA	0.07
TGGACCACGTGTGTTG	-0.02
AGTTACACGTGTGATG	0.24
TATTACACGTGGGGGG	-0.04
CTGGACACGTGAGGGT	0.23
GTTGTCACGTGGTAGC	0.15
TCGAGCACGTGCGGGG	-0.22

Sequence	relative binding free energy [kcal/mol]
TTGTTCACGTGAGGGG	0.49
GGTATCACGTGAGGCG	0.34
TGTAGCACGTGTCGGT	0.01
TAAGGCACGTGCAGGT	-0.15
TAGAGCACGTGTCGAG	-0.03
TCCAGCACGTGGGTGT	-0.25
AGTAGCACGTGGCGGT	-0.19
TCAGACACGTGTTTTG	-0.01
GGATGCACGTGCCAGG	0.03
TTGGTCACGTGCGCTG	0
ATTAACACGTGCTGTG	0.02
TCTGGCACGTGCGGTT	-0.07
TTGAACACGTGATTTG	0.16
AATTTCACGTGGAGGT	0.19
TTTCACACGTGGTAAT	-0.02
GTAAGCACGTGCGTTT	-0.1
GTCGTCACGTGAAGTT	0.31
ATTATCACGTGGTTAG	-0.03
CGTGTCACGTGGGAGC	0
AATTTCACGTGGGTCT	0.22
GGGCTCACGTGGGCAT	0.12
CTGTGCACGTGGTGTC	-0.21
GGGTTCACGTGCAGGA	0.4
TATTGCACGTGATTGA	0.05
ATTAGCACGTGTTGTG	-0.04
GATATCACGTGAGAGT	0.38

Sequence	relative binding free energy [kcal/mol]
AAGCGCACGTGTGTTG	-0.08
GGTTGCACGTGGGCGG	-0.14
GGTAGCACGTGCGGGT	-0.03
TAATACACGTGTGGGA	0.08
TCGTGCACGTGGTCTT	-0.02
CTGGTCACGTGAATAG	0.4
ATTGGCACGTGCGGGC	-0.1
GGTTACACGTGGCGGC	0.05
TCGAGCACGTGGTTGG	-0.16
TGGGGCACGTGAGTTC	0.21
TGTCTCACGTGTTTCT	0.15
AGATGCACGTGGTCGT	-0.22
TAATACACGTGTTGGA	-0.01
GTCTTCACGTGTTTGA	0.21
TGTGACACGTGATATA	0
AGTGTCACGTGCGGTG	0.02
TTACGCACGTGTTGGG	-0.04
TAATTCACGTGTGCGG	0.31
TGCAGCACGTGATGTG	0.04
ATTGTCACGTGTTGTC	0.01
GGTAACACGTGAGCAG	0.27
TTCTTCACGTGGAGGG	0.27
AGGGTCACGTGTGTGG	0.24
TTGGACACGTGGCTGG	0
TGGGTCACGTGCAGTA	-0.06
AATGGCACGTGACGTG	0.05

Sequence	relative binding free energy [kcal/mol]
GCATGCACGTGTGGAA	0.11
GTGTACACGTGGTAAA	0.12
CGTTCCACGTGTATGT	0.03
GTTTACACGTGGGAAG	0.08
TGAGTCACGTGTTATA	0.06
TGCTACACGTGGCGGT	-0.06
AGCGCCACGTGGGGTG	-0.32
CGTCGCACGTGGCGGT	-0.16
AAAGGCACGTGGCAGG	-0.2
TGTGTCACGTGGTGGC	0.09
GTGATCACGTGGGGGA	0.09
TAGGGCACGTGTGGAC	-0.12
GTTTTCACGTGGTTCG	0.37
TAGAGCACGTGAAGTT	0.1
CTGTGCACGTGTTGGC	-0.14
GTATACACGTGTTAAT	0.05
AGAAACACGTGGTGGG	-0.08
TGTAACACGTGTTGGC	0.09
TTTCTCACGTGGTCGG	0.18
TTTGGCACGTGGTGCG	-0.18
TGCTTCACGTGGGATG	0.16
GGTTGCACGTGTTGAT	0.01
